Variants at the floor of the assay are shown more often than the library holds them.
B1: TPR 5TU (parent)
chain: GGAUCUUCUCGAUCUAACAAAAAAGACAAAUCUGCCACAAAGCUUGAGAGCAUCUUCGGAUGCAGAGGCGGCAGCCUUCGGUGGCGCGAUAGCGCCAACGUUCUCAACUAUGACACGCAAAACGCGUGCUCCGUUGAAUGGAGUUUAUCAUG

Variants of: B1
Assay: polymerase ribozyme fitness, log enrichment relative to wild type (log ratio); higher = more active; in vitro selection for triplet polymerase activity
Outline: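 Both subunits of a heterodimeric triplet polymerase ribozyme were given their own mutant library, built by PCR and transcribed. Each library was annealed with a biotinylated primer, the partner subunit and triplets, incubated frozen at −7 °C, and its extended constructs gel-excised, captured on streptavidin beads and amplified by RT-PCR, all in one round done in triplicate. Fitness is the logarithm of genotype enrichment relative to wild-type enrichment, with replicates averaged by inverse-variance weighting. That logarithm is base 2, and Illumina-sequenced genotypes needed ≥10 input reads and ≥1 read per output.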

C14A G25A U53G G84C C87U G117C G124A and C14A G25U A64C G83C A89U A121G cannot be ordered by “polymerase ribozyme fitness (log ratio)” value: at most -4.2 for the first, at most -4.2 for the second.

Compared with C14A G48C C57G C87G C131A U139C, C14A G50A C85U G126C is higher in “polymerase ribozyme fitness (log ratio)” value: at most -4.2 for the first, -4.17 for the second.

C14A G58A G68A U78A G94A and C14A G58C G70U C87A A97C G112U C116A U151G cannot be ordered by “polymerase ribozyme fitness (log ratio)” value: at most -4.2 for the first, at most -4.2 for the second.

C14A G59C U78G C96U and C14A G59U G83A C132G U144A cannot be ordered by “polymerase ribozyme fitness (log ratio)” value: at most -4.2 for the first, at most -4.2 for the second.

C14A G80A C85U C103G G117U G124U A142G and C14A G84A C129G A138G cannot be ordered by “polymerase ribozyme fitness (log ratio)” value: at most -4.2 for the first, at most -4.2 for the second.

C14A G86C U90A A150U and C14A G92U C93U G126C G140A cannot be ordered by “polymerase ribozyme fitness (log ratio)” value: at most -4.2 for the first, at most -4.2 for the second.

C14A U15C C43U A47U U55A G84U G117U C132U U135A U148G and C14A U15G A49G G83A G94U G100A C105G cannot be ordered by “polymerase ribozyme fitness (log ratio)” value: at most -4.2 for the first, at most -4.2 for the second.

C14A U31A U55A G92A C125U A142U and C14A U53A G59A C85U C87U A106C U135G cannot be ordered by “polymerase ribozyme fitness (log ratio)” value: at most -4.2 for the first, at most -4.2 for the second.

C14A U55G C93U A97G A115C C118G and C14A U56A U90A C96G G126A cannot be ordered by “polymerase ribozyme fitness (log ratio)” value: at most -4.2 for the first, at most -4.2 for the second.

Going from C14A U77A G83U C85A G94C G124A A147U to C14A U101G, the “polymerase ribozyme fitness (log ratio)” value rises from at most -4.2 to -1.35.

C14A U111C and C14G A16U C36U A73G G84U U101A C125U U135C A138U cannot be ordered by “polymerase ribozyme fitness (log ratio)” value: at most -4.2 for the first, at most -4.2 for the second.

Going from C14G A19G G25A A30G A40U U56A C95A A142U to C14G A19U G59C G81U C95U G141A, the “polymerase ribozyme fitness (log ratio)” value rises from at most -4.2 to -3.74.

C14G A20G A24U C72G U82G A97G U101C C103G G136A and C14G A20G U31G C35U C54G cannot be ordered by “polymerase ribozyme fitness (log ratio)” value: at most -4.2 for the first, at most -4.2 for the second.

C14G A20U A26G A29U C57A C69U C76A G112A G141C and C14G A21U G59C G94A U101G A113C cannot be ordered by “polymerase ribozyme fitness (log ratio)” value: at most -4.2 for the first, at most -4.2 for the second.

C14G A21U G68A G84U C131G G143U and C14G A22C A39C A52G C75G U82G G140U cannot be ordered by “polymerase ribozyme fitness (log ratio)” value: at most -4.2 for the first, at most -4.2 for the second.

C14G A22C A52U C96A A97U G117U and C14G A22G C54U G70U C95U C96A C114U A137C cannot be ordered by “polymerase ribozyme fitness (log ratio)” value: at most -4.2 for the first, at most -4.2 for the second.

C14G A22U A26G A28C U134A and C14G A23C A40C G59A C85G G141C U144A cannot be ordered by “polymerase ribozyme fitness (log ratio)” value: at most -4.2 for the first, at most -4.2 for the second.

C14G A23G A73G G84U G126C U135A and C14G A23G C32A G94U C123G A147G cannot be ordered by “polymerase ribozyme fitness (log ratio)” value: at most -4.2 for the first, at most -4.2 for the second.

C14G A23G G46C G58A G62C G92A C114A A142U and C14G A23U A28C A40G G42C A89U C116G G124C U134G cannot be ordered by “polymerase ribozyme fitness (log ratio)” value: at most -4.2 for the first, at most -4.2 for the second.

C14G A24C A60G G62A G65C C87U U145G and C14G A24C G84A C93U A121U cannot be ordered by “polymerase ribozyme fitness (log ratio)” value: at most -4.2 for the first, at most -4.2 for the second.

C14G A24G C51U C57A G136U A142C and C14G A24U U61A cannot be ordered by “polymerase ribozyme fitness (log ratio)” value: at most -4.2 for the first, at most -4.2 for the second.

C14G A26C A37G C85U G124U C125U and C14G A26C C43A C76U G83C A113G C114U G133U cannot be ordered by “polymerase ribozyme fitness (log ratio)” value: at most -4.2 for the first, at most -4.2 for the second.

C14G A26U G58C A89U G117U A120C C125A and C14G A26U G94C cannot be ordered by “polymerase ribozyme fitness (log ratio)” value: at most -4.2 for the first, at most -4.2 for the second.

C14G A28C U55G and C14G A28G U31A C32U G34A G42C U55G G94U cannot be ordered by “polymerase ribozyme fitness (log ratio)” value: at most -4.2 for the first, at most -4.2 for the second.

C14G A28U C85U G141U U146C and C14G A28U C114U U146G cannot be ordered by “polymerase ribozyme fitness (log ratio)” value: at most -4.2 for the first, at most -4.2 for the second.

Compared with C14G A28U U55G A89U C96A G126A G128C G140C, C14G A29C U53A C95U C114U G140A is higher in “polymerase ribozyme fitness (log ratio)” value: at most -4.2 for the first, -3.68 for the second.

C14G A29G C57A A66G C85A G100U A115G C149G and C14G A30C U31A A41G G68A A73G G86A U146C cannot be ordered by “polymerase ribozyme fitness (log ratio)” value: at most -4.2 for the first, at most -4.2 for the second.

Going from C14G A30U A52G G71C G83C U134G to C14G A37C, the “polymerase ribozyme fitness (log ratio)” value rises from at most -4.2 to -3.05.

C14G A40C U55A G81C G126A U139G G140A and C14G A40U A66U C149G cannot be ordered by “polymerase ribozyme fitness (log ratio)” value: at most -4.2 for the first, at most -4.2 for the second.

C14G A40U A73G U104C and C14G A47C U53G C76G C99G cannot be ordered by “polymerase ribozyme fitness (log ratio)” value: at most -4.2 for the first, at most -4.2 for the second.

C14G A47G C118G A119G A121U G141U and C14G A91U C93G C125A cannot be ordered by “polymerase ribozyme fitness (log ratio)” value: at most -4.2 for the first, at most -4.2 for the second.

Compared with C14G A97U C105U C114U C125U A142C, C14G A106C C118A C123U is higher in “polymerase ribozyme fitness (log ratio)” value: at most -4.2 for the first, -4.16 for the second.

C14G C18U A24G U56A C85U A113C G124A C129U and C14G C18U A49C A64C C93G C95G C99G C105G U135C A142G cannot be ordered by “polymerase ribozyme fitness (log ratio)” value: at most -4.2 for the first, at most -4.2 for the second.

Compared with C14G C18U G92C, C14G C27A U44A G48C C87U U145C is lower in “polymerase ribozyme fitness (log ratio)” value: -2.89 for the first, at most -4.2 for the second.

C14G C27U C87G G88U U90G and C14G C32G A41G C79U G84A C149U cannot be ordered by “polymerase ribozyme fitness (log ratio)” value: at most -4.2 for the first, at most -4.2 for the second.

C14G C32G C57U U130G and C14G C32G U56A C85U C95G U104G cannot be ordered by “polymerase ribozyme fitness (log ratio)” value: at most -4.2 for the first, at most -4.2 for the second.

C14G C32U G94A C114G G136A and C14G C32U U33A G71A G92U G136A G141C cannot be ordered by “polymerase ribozyme fitness (log ratio)” value: at most -4.2 for the first, at most -4.2 for the second.

C14G C35A A64G G70A G83A C87U A150G and C14G C35A G83C U101C cannot be ordered by “polymerase ribozyme fitness (log ratio)” value: at most -4.2 for the first, at most -4.2 for the second.

Compared with C14G C35A G92U U135A U151C, C14G C35U C95U U101A is higher in “polymerase ribozyme fitness (log ratio)” value: at most -4.2 for the first, -3.82 for the second.

Going from C14G C36U G92C to C14G C36U U45G G59A C95U A97G A98U C125A U139G, the “polymerase ribozyme fitness (log ratio)” value rises from at most -4.2 to -4.03.

C14G C38U A49C C75U C79G U139G G141C A147U and C14G C54A C57G G84U U102C U139A A150C cannot be ordered by “polymerase ribozyme fitness (log ratio)” value: at most -4.2 for the first, at most -4.2 for the second.

C14G C54U C69U U77C G94A A120G C131U and C14G C54U C85G A107G cannot be ordered by “polymerase ribozyme fitness (log ratio)” value: at most -4.2 for the first, at most -4.2 for the second.

Source: the RNAGym collection of RNA variant scans (doi:10.1073/pnas.2313332121)
